Consider 19 molecules from the supplement of paper PMC10369915.

The other results are listed elsewhere or left out. Cut-off read from the data, not from the text of the source: active = 3.2 or more and inactive = the rest. Most of these values are background signal.
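Note: displayed peptides selected on beads carrying the immobilized SH2 domain, with library peptides lacking any tyrosine serving as negative controls.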

For one experiment, the target named is SHP2 C-SH2 domain E139D. In words: enrichment score (SH2-bound / input frequency) (ratio); bacterial display of known human phosphotyrosine sites (pTyr-Var adds point mutants) read by sequencing; higher = stronger binding; tyrosines were phosphorylated by kinases first. To be noted: peptide library: pTyr-Var.
TLEKFYFAFPG [SLC1A1_Y51]: the enrichment score is inactive: 1.51.
For the molecule RRNNSYTCFTA [SLC20A2_Y386_YF], the enrichment score is inactive: 0.586.
With PTFEHYANSTQ [SLC12A3_Y70_YF], the enrichment score was inactive: 0.757.
For the molecule PTYEHYANSTQ [SLC12A3_Y70], the enrichment score was inactive: 0.662.
For the molecule PDKRIYQFTAA [SKAP2_Y197], the enrichment score was inactive: 0.63.
As to VYLGAYDRFLP [SLC22A5_Y486], the enrichment score was inactive: 1.06.
Regarding CEHFSYFGMKA [SLC15A2_Y60_R57H_YF], the enrichment score is inactive: 1.39.
As to FGSIMYEFVGK [SLC18A1_Y251_V249I], the enrichment score was inactive: 1.29.
Still for that read-out and setting: under FFLGAYDRFLP [SLC22A5_Y486_V481F_YF] stands inactive: 2.65; under GRTNICKNKKD [SLC26A3_Y520_Y520C], inactive: 1.76.
On to GQSKGYRPKLF [SIPA1L3_Y1376_YF], for which the enrichment score is inactive: 0.605.
KNKKDYYDMYE [SLC26A3_Y526]: the enrichment score is inactive: 0.786.
PTYENYANSTQ [SLC12A3_Y70_H69N]: the enrichment score is inactive: 2.35.
Regarding LLREWYLQDPF [SIX3_Y225_YF], the enrichment score is inactive: 1.74.
For the molecule CERFSYFGMKA [SLC15A2_Y60_YF], the enrichment score is inactive: 1.43.
Regarding KGEPQYSSHSS [SIPA1L3_Y1265], the enrichment score was inactive: 0.592.
With RKEAQYMLENE [SLC16A6_Y224], the enrichment score was inactive: 0.527.
For KREPQYSSHSS [SIPA1L3_Y1265_G1261R], the enrichment score was inactive: 0.594.
On to DSYWSYCNAVA [SLC20A2_Y436_S434W], for which the enrichment score is inactive: 0.9.

A further experiment concerns the target SHP2 C-SH2 domain wild-type. The description is as above. To be noted: peptide library: pTyr-Var.
For TLEKFYFAFPG [SLC1A1_Y51], the enrichment score was inactive: 1.29.
For RRNNSYTCFTA [SLC20A2_Y386_YF], the enrichment score was inactive: 0.397.
Turning to PTFEHYANSTQ [SLC12A3_Y70_YF], the enrichment score was inactive: 0.892.
PTYEHYANSTQ [SLC12A3_Y70]: the enrichment score is inactive: 0.662.
Turning to PDKRIYQFTAA [SKAP2_Y197], the enrichment score was inactive: 0.732.
On the same count and under the same terms, under VYLGAYDRFLP [SLC22A5_Y486] stands inactive: 1.66.
Same read-out and setting: under CEHFSYFGMKA [SLC15A2_Y60_R57H_YF] stands inactive: 1.38.
For FGSIMYEFVGK [SLC18A1_Y251_V249I], the enrichment score is inactive: 1.02.
In the case of FFLGAYDRFLP [SLC22A5_Y486_V481F_YF], the enrichment score was inactive: 2.7.
For the molecule GRTNICKNKKD [SLC26A3_Y520_Y520C], the enrichment score was inactive: 1.59.
For GQSKGYRPKLF [SIPA1L3_Y1376_YF], the enrichment score is inactive: 0.642.
Take KNKKDYYDMYE [SLC26A3_Y526]: the enrichment score was inactive: 0.713.
Regarding PTYENYANSTQ [SLC12A3_Y70_H69N], the enrichment score is inactive: 1.82.
For LLREWYLQDPF [SIX3_Y225_YF], the enrichment score is inactive: 2.31.
With CERFSYFGMKA [SLC15A2_Y60_YF], the enrichment score was inactive: 1.15.
For KGEPQYSSHSS [SIPA1L3_Y1265], the enrichment score was inactive: 0.467.
As for RKEAQYMLENE [SLC16A6_Y224], the enrichment score was inactive: 0.402.
Regarding KREPQYSSHSS [SIPA1L3_Y1265_G1261R], the enrichment score was inactive: 0.673.
For the molecule DSYWSYCNAVA [SLC20A2_Y436_S434W], the enrichment score was inactive: 0.85.

The target of another experiment is SHP2 N-SH2 domain L43F. The description is as above. The settings on record: peptide library: pTyr-Var.
Regarding TLEKFYFAFPG [SLC1A1_Y51], the enrichment score was inactive: 1.35.
Same read-out and setting: under RRNNSYTCFTA [SLC20A2_Y386_YF] stands inactive: 0.23.
Regarding PTFEHYANSTQ [SLC12A3_Y70_YF], the enrichment score is inactive: 1.09.
For PTYEHYANSTQ [SLC12A3_Y70], the enrichment score was inactive: 0.7.
Still for that read-out and setting: under PDKRIYQFTAA [SKAP2_Y197] stands inactive: 0.653; under VYLGAYDRFLP [SLC22A5_Y486], inactive: 0.954; under CEHFSYFGMKA [SLC15A2_Y60_R57H_YF], inactive: 1.21.
As for FGSIMYEFVGK [SLC18A1_Y251_V249I], the enrichment score was inactive: 1.09.
Turning to FFLGAYDRFLP [SLC22A5_Y486_V481F_YF], the enrichment score is inactive: 2.49.
As for GRTNICKNKKD [SLC26A3_Y520_Y520C], the enrichment score is inactive: 1.55.
Still for that read-out and setting: the same measure for GQSKGYRPKLF [SIPA1L3_Y1376_YF]: inactive: 0.498; for KNKKDYYDMYE [SLC26A3_Y526]: inactive: 0.588; for PTYENYANSTQ [SLC12A3_Y70_H69N]: inactive: 1.99.
As to LLREWYLQDPF [SIX3_Y225_YF], the enrichment score is inactive: 2.49.
Turning to CERFSYFGMKA [SLC15A2_Y60_YF], the enrichment score is inactive: 0.941.
Take KGEPQYSSHSS [SIPA1L3_Y1265]: the enrichment score was inactive: 0.539.
Turning to RKEAQYMLENE [SLC16A6_Y224], the enrichment score was inactive: 0.816.
The same measure, in the same setting: under KREPQYSSHSS [SIPA1L3_Y1265_G1261R] stands inactive: 0.717; under DSYWSYCNAVA [SLC20A2_Y436_S434W], inactive: 0.638.

For the next experiment, the target named is SHP2 N-SH2 domain T42A. Described as above. The settings on record: peptide library: pTyr-Var.
Consider TLEKFYFAFPG [SLC1A1_Y51], for which the enrichment score was inactive: 1.3.
Turning to RRNNSYTCFTA [SLC20A2_Y386_YF], the enrichment score was inactive: 0.382.
With PTFEHYANSTQ [SLC12A3_Y70_YF], the enrichment score was inactive: 0.76.
In the case of PTYEHYANSTQ [SLC12A3_Y70], the enrichment score is inactive: 0.68.
Turning to PDKRIYQFTAA [SKAP2_Y197], the enrichment score was inactive: 0.621.
Consider VYLGAYDRFLP [SLC22A5_Y486], for which the enrichment score is inactive: 1.02.
For the molecule CEHFSYFGMKA [SLC15A2_Y60_R57H_YF], the enrichment score was inactive: 1.04.
The same measure, in the same setting: under FGSIMYEFVGK [SLC18A1_Y251_V249I] stands inactive: 1.28.
As to FFLGAYDRFLP [SLC22A5_Y486_V481F_YF], the enrichment score was inactive: 2.44.
The same measure, in the same setting: under GRTNICKNKKD [SLC26A3_Y520_Y520C] stands inactive: 1.34; under GQSKGYRPKLF [SIPA1L3_Y1376_YF], inactive: 0.533; under KNKKDYYDMYE [SLC26A3_Y526], inactive: 0.502.
Same read-out and setting: under PTYENYANSTQ [SLC12A3_Y70_H69N] stands inactive: 2.62; under LLREWYLQDPF [SIX3_Y225_YF], inactive: 2.27.
Consider CERFSYFGMKA [SLC15A2_Y60_YF], for which the enrichment score was inactive: 1.27.
Consider KGEPQYSSHSS [SIPA1L3_Y1265], for which the enrichment score is inactive: 0.618.
RKEAQYMLENE [SLC16A6_Y224]: the enrichment score is inactive: 0.314.
With KREPQYSSHSS [SIPA1L3_Y1265_G1261R], the enrichment score was inactive: 0.447.
For DSYWSYCNAVA [SLC20A2_Y436_S434W], the enrichment score is inactive: 0.806.

The target in another experiment is SHP2 N-SH2 domain T52S. The description is as above. To be noted: peptide library: pTyr-Var.
With TLEKFYFAFPG [SLC1A1_Y51], the enrichment score is inactive: 1.48.
For the molecule RRNNSYTCFTA [SLC20A2_Y386_YF], the enrichment score was inactive: 0.358.
On to PTFEHYANSTQ [SLC12A3_Y70_YF], for which the enrichment score is inactive: 0.889.
For PTYEHYANSTQ [SLC12A3_Y70], the enrichment score is inactive: 0.5.
Regarding PDKRIYQFTAA [SKAP2_Y197], the enrichment score was inactive: 0.841.
As to VYLGAYDRFLP [SLC22A5_Y486], the enrichment score was inactive: 0.903.
Same read-out and setting: the same measure for CEHFSYFGMKA [SLC15A2_Y60_R57H_YF]: inactive: 1.28.
Consider FGSIMYEFVGK [SLC18A1_Y251_V249I], for which the enrichment score was inactive: 1.2.
As for FFLGAYDRFLP [SLC22A5_Y486_V481F_YF], the enrichment score was inactive: 2.42.
Turning to GRTNICKNKKD [SLC26A3_Y520_Y520C], the enrichment score is inactive: 1.78.
GQSKGYRPKLF [SIPA1L3_Y1376_YF]: the enrichment score is inactive: 0.459.
Regarding KNKKDYYDMYE [SLC26A3_Y526], the enrichment score is inactive: 0.896.
Take PTYENYANSTQ [SLC12A3_Y70_H69N]: the enrichment score was inactive: 1.66.
For the molecule LLREWYLQDPF [SIX3_Y225_YF], the enrichment score is inactive: 2.56.
For the molecule CERFSYFGMKA [SLC15A2_Y60_YF], the enrichment score is inactive: 1.21.
For KGEPQYSSHSS [SIPA1L3_Y1265], the enrichment score was inactive: 0.524.
Turning to RKEAQYMLENE [SLC16A6_Y224], the enrichment score is inactive: 0.482.
As to KREPQYSSHSS [SIPA1L3_Y1265_G1261R], the enrichment score was inactive: 0.543.
Regarding DSYWSYCNAVA [SLC20A2_Y436_S434W], the enrichment score is inactive: 0.809.

The target of the next experiment is SHP2 N-SH2 domain wild-type. The description is as above. To be noted: peptide library: pTyr-Var.
For TLEKFYFAFPG [SLC1A1_Y51], the enrichment score was inactive: 1.62.
With RRNNSYTCFTA [SLC20A2_Y386_YF], the enrichment score is inactive: 0.404.
The same measure, in the same setting: the same measure for PTFEHYANSTQ [SLC12A3_Y70_YF]: inactive: 1.08.
In the case of PTYEHYANSTQ [SLC12A3_Y70], the enrichment score is inactive: 0.717.
PDKRIYQFTAA [SKAP2_Y197]: the enrichment score is inactive: 0.706.
As to VYLGAYDRFLP [SLC22A5_Y486], the enrichment score is inactive: 1.24.
Turning to CEHFSYFGMKA [SLC15A2_Y60_R57H_YF], the enrichment score was inactive: 1.35.
In the case of FGSIMYEFVGK [SLC18A1_Y251_V249I], the enrichment score is inactive: 1.17.
For FFLGAYDRFLP [SLC22A5_Y486_V481F_YF], the enrichment score was inactive: 2.6.
Regarding GRTNICKNKKD [SLC26A3_Y520_Y520C], the enrichment score is inactive: 1.53.
As to GQSKGYRPKLF [SIPA1L3_Y1376_YF], the enrichment score is inactive: 0.668.
For KNKKDYYDMYE [SLC26A3_Y526], the enrichment score is inactive: 0.853.
On to PTYENYANSTQ [SLC12A3_Y70_H69N], for which the enrichment score was inactive: 2.1.
As for LLREWYLQDPF [SIX3_Y225_YF], the enrichment score is inactive: 1.75.
Turning to CERFSYFGMKA [SLC15A2_Y60_YF], the enrichment score was inactive: 1.19.
As to KGEPQYSSHSS [SIPA1L3_Y1265], the enrichment score is inactive: 0.731.
For RKEAQYMLENE [SLC16A6_Y224], the enrichment score was inactive: 0.584.
On to KREPQYSSHSS [SIPA1L3_Y1265_G1261R], for which the enrichment score was inactive: 0.628.
In the case of DSYWSYCNAVA [SLC20A2_Y436_S434W], the enrichment score was inactive: 1.
